Consider 56 molecules from ChEMBL document CHEMBL4888484, “Replenishing the malaria drug discovery pipeline: Screening and hit evaluation of the MMV Hit Generation Library 1 (HGL1) against asexual blood stage Plasmodium falciparum ,using a nano luciferase reporter read-out” (2022).

Out of some 150,000 compounds screened, about 540 (0.36%) showed an effect of 50% or more. The list shows a part of the results.

By % Inhibition is commonly meant the drop in the measured response relative to a control, in per cent.

The test deals with Plasmodium falciparum. In words: Primary screen in NF54 nanoGlo assay, in single point, at 2uM, 72h; a lower Z score goes with more inhibition. The test is classed as functional, Erythrocyte. The conditions noted are these: timepoint 72 hour.
On to `O=S1(=O)CCN(c2nc(-c3cc(F)ccc3F)cs2)CC1`, for which the “% Inhibition” value is recorded as -6% and the Z score stood at 1.08.
With `COCCN(Cc1ccc(OC)c(OS(=O)(=O)c2ccc(F)cc2)c1)C(=O)c1cccc(F)c1`, the “% Inhibition” value is listed as -1% and the Z score is recorded as 0.15.
Consider `CC(C)c1cc(=O)n(CC(=O)N2CCCCC2)cn1`, for which the “% Inhibition” value is given as -6% and the Z score turned out to be 1.05.
Consider `O=C(NCc1nnc2n1CCOC2)c1ccc(OC(F)F)nc1`, for which the “% Inhibition” value is on record as -8% and the Z score turned out to be 1.3.
Turning to `O=C(NCC[C@H]1CCOC1)c1ccc(-c2cnn3cccnc23)cc1`, the “% Inhibition” value is listed as -1% and the Z score was 0.21.
On to `CCOc1ccccc1NC(=O)C(=O)c1cccn1C`, for which the “% Inhibition” value is given as -18% and the Z score came out at 1.65.
For `CC(C)(C)c1n[nH]cc1CNc1ccc(C[C@H]2CC(=O)NC2=O)cc1`, in that order: 3% and -0.36.
On to `COc1ccccc1-c1n[nH]c2c1CN(C(=O)Cc1ccsc1)CC2`, for which the “% Inhibition” value is recorded as -2% and the Z score was 0.22.
For `COCCN(CC(=O)Nc1cnn(C)c1C)Cc1ccc(C)s1`, the “% Inhibition” value is 0% and the Z score was -0.02.
On the same counts, the results for `C[C@H]1CCCN(C(=O)CNC(=O)c2cccs2)C1` are -6% and 1.25.
`O=C(CCCc1c[nH]c2ccccc12)N1CCOCC1`: the “% Inhibition” value was -11% and the Z score came to 1.51.
Turning to `C[C@]1(C#N)CCCN(C(=O)CCCn2cccn2)C1`, the “% Inhibition” value is given as -5% and the Z score is 1.04.
For `Cc1ccccc1CNC(=O)c1cc(N(C)C2CCCCC2)nc2ccccc12`, the “% Inhibition” value is -26% and the Z score is 2.26.
On to `CN1CCN(C(=O)CN2CCCC2)C[C@H]1c1ccccc1`, for which the “% Inhibition” value was -21% and the Z score is recorded as 2.73.
On to `Cc1nc2ccccc2n1[C@H]1CCN(S(=O)(=O)c2ccc3c(c2)CCCC3)C1`, for which the “% Inhibition” value is given as -17% and the Z score turned out to be 2.11.
With `COc1cnc2ccccc2c1C(=O)N1CCC(N2CCCOCC2)CC1`, the “% Inhibition” value is on record as -39% and the Z score is recorded as 4.55.
Consider `CC(C)c1nc(CC(=O)N2CCc3sccc3C2)cs1`, for which the “% Inhibition” value came to 0% and the Z score came out at 0.04.
On to `CCCCS(=O)(=O)N[C@@H](COC)c1ccccn1`, for which the “% Inhibition” value is 9% and the Z score is given as -1.15.
As to `Cc1cc(F)ccc1[C@H](C)NC(=O)Nc1ncn(CC(=O)N(C)C)n1`, the “% Inhibition” value was -5% and the Z score was 0.55.
As to `COc1c(C)ncnc1N1CCC[C@H](n2cc(C)cn2)C1`, the “% Inhibition” value came out at 2% and the Z score is reported as -0.3.
Turning to `Cn1cc(NC(=O)c2ccccn2)cn1`, the “% Inhibition” value is 4% and the Z score was -0.68.
In the case of `CN(Cc1nnc(-c2ccco2)o1)C[C@H]1COc2ccccc2O1`, the “% Inhibition” value was -13% and the Z score was found to be 2.46.
Take `CCCN1C(=O)CN(S(=O)(=O)c2ccccc2)C[C@@]1(C)C(=O)NCc1ccc(C)cc1`: the “% Inhibition” value came to 1% and the Z score is reported as -0.15.
Regarding `COc1ccc(F)cc1C(=O)N1C[C@@H](CN2C[C@@H](C)O[C@@H](C)C2)[C@@H](CO)C1`, the “% Inhibition” value is -17% and the Z score was 2.58.
On the same counts, the results for `O=C(NCc1cccc(F)c1)c1cc2n(n1)CCCN(Cc1ccc(Cl)cc1)C2=O` are 1% and -0.14.
As to `O=C1NC2(CCN(C(=O)NC3CCCCC3)CC2)Nc2cc(Cl)ccc21`, the “% Inhibition” value is reported as -6% and the Z score was 0.75.
On to `C[C@@H](CC#N)NS(=O)(=O)c1cnc(NCCCO)c(Cl)c1`, for which the “% Inhibition” value was -4% and the Z score is 0.63.
Turning to `CCc1nc(N2CCC(CNC(=O)c3cc(C)on3)CC2)no1`, the “% Inhibition” value is listed as -7% and the Z score was determined as 0.87.
Consider `O=c1cccc(-c2noc(C3CCC3)n2)[nH]1`, for which the “% Inhibition” value is listed as -6% and the Z score came out at 0.83.
`CS(=O)(=O)N1CCC2(CC1)OC(=O)c1ccccc12`: the “% Inhibition” value is reported as -13% and the Z score is given as 1.72.
Regarding `C[C@@H](Cc1cccnc1)NC(=O)Nc1ccc(C2CCC2)cn1`, the “% Inhibition” value was -1% and the Z score was determined as 0.16.
As to `CCc1nsc(N2CCC(n3c(C)nnc3N)CC2)n1`, the “% Inhibition” value stood at 26% and the Z score is given as -3.3.
On to `CN(Cc1ccccn1)C(=O)[C@@H]1CCCCN1C(=O)c1cccnc1`, for which the “% Inhibition” value is -16% and the Z score is reported as 1.74.
For `C[C@H](N(C)C(=O)c1ccccc1F)C(C)(C)C`, the “% Inhibition” value is -10% and the Z score was determined as 1.82.
In the case of `Cc1ccn(-c2cc(N3CCN(C(=O)CNC(=O)c4ccccc4)CC3)ncn2)n1`, the “% Inhibition” value is listed as -3% and the Z score turned out to be 0.45.
On the same counts, the results for `Brc1cnc(NCCc2ccc[nH]2)nc1` are -2% and 0.21.
Turning to `CCOC1CC(N(C)Cc2cccnc2)C1(C)C` (configuration not stated), the “% Inhibition” value came out at 5% and the Z score was -0.83.
For the molecule `CS(=O)(=O)N1CCN(C(=O)COc2ccc(Cl)cc2Cc2ccccc2)CC1`, the “% Inhibition” value is on record as -1% and the Z score is reported as 0.22.
For the molecule `COc1ccccc1N1CCN(CCC(=O)Nc2ccc3c(c2)CCC3)CC1`, the “% Inhibition” value is -4% and the Z score came out at 0.53.
For `CCCn1ncc(C(=O)N2CC(C)(C)[C@@](O)(C3CC3)C2)c1C`, the “% Inhibition” value is recorded as -2% and the Z score is reported as 0.48.
Take `Cc1ccccc1-c1cc(C(=O)N(C)C2CC2)c2cnn(C(C)C)c2n1`: the “% Inhibition” value is reported as -6% and the Z score came to 0.69.
With `N#CC1(NC(=O)C2CC2c2cc(F)ccc2F)CCC1` (configuration not stated), the “% Inhibition” value is recorded as 0% and the Z score is given as -0.05.
For `c1sc(C2CCOCC2)nc1C1CCC1`, the “% Inhibition” value is 18% and the Z score is -2.35.
Turning to `Cc1ncccc1NC(=O)C(=O)NCC1CCC(C)(C)CC1`, the “% Inhibition” value was -9% and the Z score amounted to 1.51.
On to `Cc1nnc([C@@H]2COCCN2Cc2oc(C(C)C)nc2C)o1`, for which the “% Inhibition” value is reported as -9% and the Z score is 1.22.
On the same counts, the results for `O=C1N(CC2CC2)CCC[C@@]12CCN(S(=O)(=O)N1CCOCC1)C2` are -12% and 1.1.
Turning to `O=C1CCNC(=O)N1Cc1nc2ccccc2s1`, the “% Inhibition” value is reported as -7% and the Z score turned out to be 0.96.
Consider `O=C(CN1CCN(S(=O)(=O)c2ccc(F)cc2)CC1)Nc1ccon1`, for which the “% Inhibition” value is given as -11% and the Z score came out at 1.35.
For `Cc1nc(C(=O)NC2CC(OC(C)(C)C)C2n2cccn2)c(C)o1` (configuration not stated), in that order: -7% and 1.46.
For `CCc1csc(CNC(=O)c2ccc(N[C@@H]3C[C@@H](CO)N(C)C3)nc2)n1`, the “% Inhibition” value is reported as -3% and the Z score was 0.5.
`COc1ccc(CNS(C)(=O)=O)cc1N[C@@H](C)C1CC(F)(F)C1`: the “% Inhibition” value is 2% and the Z score is given as -0.34.
With `Brc1cncc(O[C@H]2CCN(CCc3ccncc3)C2)c1`, the “% Inhibition” value is 0% and the Z score was -0.05.
`O=S(=O)(c1cccs1)N1CC(n2nccn2)C1`: the “% Inhibition” value was -8% and the Z score came out at 0.93.
For `CN(C)C(=O)NCc1cc2n(n1)CCCN(Cc1cc3ccccc3o1)C2`, in that order: -14% and 1.73.
For `CCC1(CNc2nc(N(C)C)ns2)CCC1`, the “% Inhibition” value was -14% and the Z score was 2.75.
As to `CCn1cc(Br)cc1C(=O)N1C(C)COCC1C` (configuration not stated), the “% Inhibition” value is -10% and the Z score amounted to 1.06.
